Source: PMC12208539, “PPIL2 is a target of the JAK2/STAT5 pathway and promotes myeloproliferation via degradation of p53” (The Journal of Clinical Investigation, 2025)

Biological target: T1, recombinant GST-PPIL2 (1-520) (UniProt Q13356 1-520)
T1 construct: peptidylprolyl isomerase-like 2 (PPIL2), residues 1-520; also called GST-tagged PPIL2; pGEX6p-3-GST-PPIL2 (1-520); source: recombinant, prokaryotic expression vector pGEX6p-3
T1 sequence (looked up): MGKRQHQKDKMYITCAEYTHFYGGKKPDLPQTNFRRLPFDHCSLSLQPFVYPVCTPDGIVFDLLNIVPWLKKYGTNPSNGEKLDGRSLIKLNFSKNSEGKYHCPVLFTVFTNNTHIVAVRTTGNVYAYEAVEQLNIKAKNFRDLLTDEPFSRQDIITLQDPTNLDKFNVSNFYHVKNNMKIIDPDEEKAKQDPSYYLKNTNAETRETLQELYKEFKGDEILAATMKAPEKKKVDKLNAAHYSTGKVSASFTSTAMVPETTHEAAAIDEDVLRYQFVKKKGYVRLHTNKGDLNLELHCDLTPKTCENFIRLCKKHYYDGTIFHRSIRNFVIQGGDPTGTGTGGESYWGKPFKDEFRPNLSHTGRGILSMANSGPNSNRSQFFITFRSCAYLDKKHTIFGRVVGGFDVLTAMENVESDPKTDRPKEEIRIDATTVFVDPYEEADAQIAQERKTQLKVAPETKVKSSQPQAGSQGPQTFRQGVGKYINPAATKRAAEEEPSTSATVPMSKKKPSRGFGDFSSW
Assay: pull-down; His pulldown: 100 μg His-p53 protein with 100 μg GST-PPIL2 and MagneHis beads overnight at 4°C; washes with TENT buffer (1% Triton X-100, 140 mM NaCl, 2 mM EDTA, 20 mM Tris pH 8.0)
Conditions: both partners purified

B1: recombinant His-p53-([…]) (domain or fragment)
chain: not shown
notes: also called pET15b-His-p53 ([…]); source: recombinant, prokaryotic expression vector pET15b
- binding result: binds
